Measured values from the supplement of paper PMC10369915.
This is one part of the list. No stated cut-off is given here; in the data, active = 3.2 or more and inactive = the rest. Most of these values are background signal.

The binders below were run against SHP2 C-SH2 domain E139D (assay: enrichment score (SH2-bound / input frequency) (ratio); bacterial display of known human phosphotyrosine sites (pTyr-Var adds point mutants) read by sequencing; higher = stronger binding; tyrosines were phosphorylated by kinases first). Settings: peptide library: pTyr-Var.
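Further: displayed peptides selected on beads carrying the immobilized SH2 domain, with library peptides lacking any tyrosine serving as negative controls.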

Enrichment score, active:
CITIHYNYMCN [TP53_Y234_T230I] 4.15
CTTIHYNFMCH [TP53_Y234_N239H_YF] 4.07
CTTIHYNFMCK [TP53_Y234_N239K_YF] 4.66

Enrichment score, inactive:
CTTIHYIYMCN [TP53_Y234_N235I] 1.54
ISSLLYELLEE [TRPC6_Y896_R895L] 1.28
PLDEEYFTLQI [TP53_Y327_G325E] 1.18
RGGWVYVLHPT [TRMT61A_Y67] 1.07
PCNLIYFGEHP [TRPV6_Y201] 0.728
ELSDGYWVVSN [TPP1_Y459_A454E] 0.564
SEDANYKRVSC [TTC3_Y1288] 0.611
LTEEKYELKEG [TREM1_Y29] 0.635
LESTLYESSVV [TRPV4_Y91] 0.814
CTTIHCNFMCN [TP53_Y234_Y234C_YF] 1.79
PKSLFYLLLKL [TRPC6_Y775] 1.22
PLDVEYFTLQI [TP53_Y327_G325V] 0.585
AAQNCYKVTNA [TPI1_Y105_G110A] 0.636
CTTIHYNNMCN [TP53_Y234_Y236N] 2.01
PLDGEYFTLQI [TP53_Y327] 1.19
PPSGEYFGQCG [TRIP6_Y275] 0.816

These binders were tested against SHP2 C-SH2 domain wild-type in the same assay as above. Settings: peptide library: pTyr-Var.

Enrichment score, inactive:
CTTIHYIYMCN [TP53_Y234_N235I] 1.66
ISSLLYELLEE [TRPC6_Y896_R895L] 1.09
PLDEEYFTLQI [TP53_Y327_G325E] 0.895
RGGWVYVLHPT [TRMT61A_Y67] 1.31
PCNLIYFGEHP [TRPV6_Y201] 0.815
ELSDGYWVVSN [TPP1_Y459_A454E] 0.805
SEDANYKRVSC [TTC3_Y1288] 0.734
LTEEKYELKEG [TREM1_Y29] 0.766
LESTLYESSVV [TRPV4_Y91] 0.556
CTTIHCNFMCN [TP53_Y234_Y234C_YF] 1.84
PKSLFYLLLKL [TRPC6_Y775] 0.845
PLDVEYFTLQI [TP53_Y327_G325V] 0.768
AAQNCYKVTNA [TPI1_Y105_G110A] 0.598
CTTIHYNNMCN [TP53_Y234_Y236N] 1.85
PLDGEYFTLQI [TP53_Y327] 1.41
PPSGEYFGQCG [TRIP6_Y275] 0.965

Enrichment score, active:
CITIHYNYMCN [TP53_Y234_T230I] 3.72
CTTIHYNFMCH [TP53_Y234_N239H_YF] 3.82
CTTIHYNFMCK [TP53_Y234_N239K_YF] 3.8

What follows are binders tested against SHP2 N-SH2 domain L43F in the same assay as above. Settings: peptide library: pTyr-Var.

Enrichment score, active:
CITIHYNYMCN [TP53_Y234_T230I] 3.75
CTTIHYNFMCH [TP53_Y234_N239H_YF] 3.71
CTTIHYNFMCK [TP53_Y234_N239K_YF] 3.95

Enrichment score, inactive:
CTTIHYIYMCN [TP53_Y234_N235I] 1.54
ISSLLYELLEE [TRPC6_Y896_R895L] 1.3
PLDEEYFTLQI [TP53_Y327_G325E] 0.887
RGGWVYVLHPT [TRMT61A_Y67] 0.991
PCNLIYFGEHP [TRPV6_Y201] 0.972
ELSDGYWVVSN [TPP1_Y459_A454E] 0.511
SEDANYKRVSC [TTC3_Y1288] 0.609
LTEEKYELKEG [TREM1_Y29] 1.28
LESTLYESSVV [TRPV4_Y91] 0.748
CTTIHCNFMCN [TP53_Y234_Y234C_YF] 1.82
PKSLFYLLLKL [TRPC6_Y775] 0.96
PLDVEYFTLQI [TP53_Y327_G325V] 0.586
AAQNCYKVTNA [TPI1_Y105_G110A] 0.554
CTTIHYNNMCN [TP53_Y234_Y236N] 1.75
PLDGEYFTLQI [TP53_Y327] 0.907
PPSGEYFGQCG [TRIP6_Y275] 0.583

What follows are binders tested against SHP2 N-SH2 domain T42A in the same assay as above. Settings: peptide library: pTyr-Var.

Enrichment score, inactive:
CTTIHYIYMCN [TP53_Y234_N235I] 1.36
ISSLLYELLEE [TRPC6_Y896_R895L] 1.31
CITIHYNYMCN [TP53_Y234_T230I] 2.77
PLDEEYFTLQI [TP53_Y327_G325E] 0.805
RGGWVYVLHPT [TRMT61A_Y67] 1.07
PCNLIYFGEHP [TRPV6_Y201] 0.723
CTTIHYNFMCH [TP53_Y234_N239H_YF] 3.03
ELSDGYWVVSN [TPP1_Y459_A454E] 0.55
SEDANYKRVSC [TTC3_Y1288] 0.482
LTEEKYELKEG [TREM1_Y29] 0.826
LESTLYESSVV [TRPV4_Y91] 0.793
CTTIHCNFMCN [TP53_Y234_Y234C_YF] 1.53
PKSLFYLLLKL [TRPC6_Y775] 0.777
PLDVEYFTLQI [TP53_Y327_G325V] 0.461
AAQNCYKVTNA [TPI1_Y105_G110A] 0.571
CTTIHYNFMCK [TP53_Y234_N239K_YF] 2.94
CTTIHYNNMCN [TP53_Y234_Y236N] 1.95
PLDGEYFTLQI [TP53_Y327] 1.13
PPSGEYFGQCG [TRIP6_Y275] 0.6

What follows are binders tested against SHP2 N-SH2 domain T52S in the same assay as above. Settings: peptide library: pTyr-Var.

Enrichment score, inactive:
CTTIHYIYMCN [TP53_Y234_N235I] 1.44
ISSLLYELLEE [TRPC6_Y896_R895L] 1.06
PLDEEYFTLQI [TP53_Y327_G325E] 0.897
RGGWVYVLHPT [TRMT61A_Y67] 1.29
PCNLIYFGEHP [TRPV6_Y201] 0.913
ELSDGYWVVSN [TPP1_Y459_A454E] 0.74
SEDANYKRVSC [TTC3_Y1288] 0.639
LTEEKYELKEG [TREM1_Y29] 1
LESTLYESSVV [TRPV4_Y91] 0.681
CTTIHCNFMCN [TP53_Y234_Y234C_YF] 1.79
PKSLFYLLLKL [TRPC6_Y775] 0.654
PLDVEYFTLQI [TP53_Y327_G325V] 0.537
AAQNCYKVTNA [TPI1_Y105_G110A] 0.488
CTTIHYNNMCN [TP53_Y234_Y236N] 1.78
PLDGEYFTLQI [TP53_Y327] 1.19
PPSGEYFGQCG [TRIP6_Y275] 0.772

Enrichment score, active:
CITIHYNYMCN [TP53_Y234_T230I] 3.4
CTTIHYNFMCH [TP53_Y234_N239H_YF] 3.31
CTTIHYNFMCK [TP53_Y234_N239K_YF] 3.88

Each binder was assayed against SHP2 N-SH2 domain wild-type in the same assay as above. Settings: peptide library: pTyr-Var.

Enrichment score, active:
CITIHYNYMCN [TP53_Y234_T230I] 3.77
CTTIHYNFMCH [TP53_Y234_N239H_YF] 3.54
CTTIHYNFMCK [TP53_Y234_N239K_YF] 3.71

Enrichment score, inactive:
CTTIHYIYMCN [TP53_Y234_N235I] 1.63
ISSLLYELLEE [TRPC6_Y896_R895L] 1.28
PLDEEYFTLQI [TP53_Y327_G325E] 1.25
RGGWVYVLHPT [TRMT61A_Y67] 1.33
PCNLIYFGEHP [TRPV6_Y201] 0.735
ELSDGYWVVSN [TPP1_Y459_A454E] 0.788
SEDANYKRVSC [TTC3_Y1288] 0.775
LTEEKYELKEG [TREM1_Y29] 1.53
LESTLYESSVV [TRPV4_Y91] 0.648
CTTIHCNFMCN [TP53_Y234_Y234C_YF] 1.81
PKSLFYLLLKL [TRPC6_Y775] 0.95
PLDVEYFTLQI [TP53_Y327_G325V] 0.84
AAQNCYKVTNA [TPI1_Y105_G110A] 0.758
CTTIHYNNMCN [TP53_Y234_Y236N] 1.39
PLDGEYFTLQI [TP53_Y327] 1.71
PPSGEYFGQCG [TRIP6_Y275] 0.96
